# Test results taken from the supplement of paper PMC8728848.
# Some of the results follow.
# How the values were obtained:
# Assay in all cases: glycan array binding signal (z-score within array); higher = stronger binding
# Conditions in all cases: glycan notation: IUPAC condensed, linker removed
# [1] = biological target: Gal(b1-4)GlcNAc(b1-2)Man(a1-3)[Gal(b1-4)GlcNAc(b1-2)Man(a1-6)]Man(b1-4)GlcNAc(b1-4)GlcNAc
# Procedure, shortened: (§1)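 Glycan array data came from 3228 arrays in the Consortium for Functional Glycomics database, and only arrays with an available protein sequence were kept. Glycan names were put into IUPAC-condensed notation, and columns mapping to the same glycan were averaged. The binding signal is a within-array Z-score, averaged across arrays of one protein sequence run at different concentrations or buffers and across linkers. A negative Z-score can be read as non-binding.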
# [2] = biological target: Gal(b1-4)GlcNAc(b1-2)Man(a1-3)[Gal(b1-4)GlcNAc(b1-2)Man(a1-6)]Man(b1-4)GlcNAc(b1-4)[Fuc(a1-6)]GlcNAc
# Procedure, shortened: as §1
# [3] = biological target: Gal(b1-4)GlcNAc(b1-2)Man(a1-3)[Gal(b1-4)GlcNAc(b1-2)Man(a1-6)][Gal(b1-4)GlcNAc(b1-4)]Man(b1-4)GlcNAc(b1-4)[Fuc(a1-6)]GlcNAc
# Procedure, shortened: as §1
# [4] = biological target: Gal(b1-4)GlcNAc(b1-2)Man(a1-3)[Gal(b1-4)GlcNAc(b1-2)Man(a1-6)][GlcNAc(b1-4)]Man(b1-4)GlcNAc(b1-4)[Fuc(a1-6)]GlcNAc
# Procedure, shortened: as §1
# [5] = biological target: Gal(b1-4)GlcNAc(b1-2)Man(a1-3)[GlcNAc(b1-2)Man(a1-6)]Man(b1-4)GlcNAc(b1-4)GlcNAc
# Procedure, shortened: as §1
# [6] = biological target: Gal(b1-4)GlcNAc(b1-2)Man(a1-3)[GlcNAc(b1-4)][Gal(b1-4)GlcNAc(b1-2)Man(a1-6)]Man(b1-4)GlcNAc(b1-4)GlcNAc
# Procedure, shortened: as §1
# [7] = biological target: Gal(b1-4)GlcNAc(b1-2)Man(a1-3)[Man(a1-6)]Man(b1-4)GlcNAc(b1-4)GlcNAc
# Procedure, shortened: as §1
# [8] = biological target: Gal(b1-4)GlcNAc(b1-2)Man(a1-6)Man(b1-4)GlcNAc(b1-4)GlcNAc
# Procedure, shortened: as §1
# [9] = biological target: Gal(b1-4)GlcNAc(b1-2)Man(a1-6)[GlcNAc(b1-2)Man(a1-3)]Man(b1-4)GlcNAc(b1-4)GlcNAc
# Procedure, shortened: as §1
# [10] = biological target: Gal(b1-4)GlcNAc(b1-2)Man(a1-6)[Man(a1-3)]Man(b1-4)GlcNAc(b1-4)GlcNAc
# Procedure, shortened: as §1
# [11] = biological target: Gal(b1-4)GlcNAc(b1-2)[Gal(b1-4)GlcNAc(b1-4)]Man(a1-3)[Gal(b1-4)GlcNAc(b1-2)Man(a1-6)]Man(b1-4)GlcNAc(b1-4)GlcNAc
# Procedure, shortened: as §1
# [12] = biological target: Gal(b1-4)GlcNAc(b1-2)[Gal(b1-4)GlcNAc(b1-4)]Man(a1-3)[Gal(b1-4)GlcNAc(b1-2)[Gal(b1-4)GlcNAc(b1-6)]Man(a1-6)]Man(b1-4)GlcNAc(b1-4)GlcNAc
# Procedure, shortened: as §1
# [13] = biological target: Gal(b1-4)GlcNAc(b1-2)[Gal(b1-4)GlcNAc(b1-4)]Man(a1-3)[GlcNAc(b1-4)][Gal(b1-4)GlcNAc(b1-2)Man(a1-6)]Man(b1-4)GlcNAc(b1-4)GlcNAc
# Procedure, shortened: as §1
# [14] = biological target: Gal(b1-4)GlcNAc(b1-2)[Gal(b1-4)GlcNAc(b1-4)]Man(a1-3)[GlcNAc(b1-4)][Gal(b1-4)GlcNAc(b1-2)[Gal(b1-4)GlcNAc(b1-6)]Man(a1-6)]Man(b1-4)GlcNAc(b1-4)GlcNAc
# Procedure, shortened: as §1
# [15] = biological target: Gal(b1-4)GlcNAc(b1-2)[Gal(b1-4)GlcNAc(b1-6)]Man(a1-6)[Gal(b1-4)GlcNAc(b1-2)Man(a1-3)]Man(b1-4)GlcNAc(b1-4)GlcNAc
# Procedure, shortened: as §1
# [16] = biological target: Gal(b1-4)GlcNAc(b1-2)[Gal(b1-4)GlcNAc(b1-6)]Man(a1-6)[Gal(b1-4)GlcNAc(b1-2)Man(a1-3)]Man(b1-4)GlcNAc(b1-4)[Fuc(a1-6)]GlcNAc
# Procedure, shortened: as §1
# [17] = biological target: Gal(b1-4)GlcNAc(b1-2)[Gal(b1-4)GlcNAc(b1-6)]Man(a1-6)[GlcNAc(b1-4)][Gal(b1-4)GlcNAc(b1-2)Man(a1-3)]Man(b1-4)GlcNAc(b1-4)GlcNAc
# Procedure, shortened: as §1
# [18] = biological target: Gal(b1-4)GlcNAc(b1-2)[Gal(b1-4)GlcNAc(b1-6)]Man(a1-6)[GlcNAc(b1-4)][Gal(b1-4)GlcNAc(b1-2)[Gal(b1-4)GlcNAc(b1-4)]Man(a1-3)]Man(b1-4)GlcNAc(b1-4)[Fuc(a1-6)]GlcNAc
# Procedure, shortened: as §1
# [19] = biological target: Gal(b1-4)GlcNAc(b1-3)Gal(b1-3)GalNAc
# Procedure, shortened: as §1
binder,measurement,setting,value
DC-ASGPR Long (Homo sapiens) (protein) MTRTYENFQYLENKVKVQGFKNGPLPLQSLLQRLRSGPCHLLLSLGLGLLLLVIICVVGFQNSKFQRDLVTLRTDFSNFTSNTVAEIQALTSQGSSLEETIASLKAEVEGFKQERQAGVSELQEHTTQKAHLGHCPHCPSVCVPVHSEMLLRVQQLVQDLKKLTCQVATLNNNASTEGTCCPVNWVEHQDSCYWFSHSGMSWAEAEKYCQLKNAHLVVINSREEQNFVQKYLGSAYTWMGLSDPEGAWKWVDGTDYATGFQNWKPGQPDDWQGHGLGGGEDCAHFHPDGGWNDDVCQRPYHWVCEAGLGQTSQESH,glycan array binding signal (z-score),[1],-0.358
same,glycan array binding signal (z-score),[2],-0.26
same,glycan array binding signal (z-score),[3],-0.174
same,glycan array binding signal (z-score),[4],-0.266
same,glycan array binding signal (z-score),[5],1.08
same,glycan array binding signal (z-score),[6],-0.407
same,glycan array binding signal (z-score),[7],-0.176
same,glycan array binding signal (z-score),[8],0.872
same,glycan array binding signal (z-score),[9],-0.006
same,glycan array binding signal (z-score),[10],-0.015
same,glycan array binding signal (z-score),[11],-0.035
same,glycan array binding signal (z-score),[12],-0.318
same,glycan array binding signal (z-score),[13],0.118
same,glycan array binding signal (z-score),[14],-0.794
same,glycan array binding signal (z-score),[15],-0.2
same,glycan array binding signal (z-score),[16],-0.406
same,glycan array binding signal (z-score),[17],-0.175
same,glycan array binding signal (z-score),[18],-0.521
same,glycan array binding signal (z-score),[19],-0.701
